A collection of fitness landscapes (doi:10.1126/science.1257360)
Some of the results follow.

B1: PhoQ; a variant is named by its letters at X, in order, P23837 (parent)
chain: MKKLLRLFFPLSLRVRFLLATAAVVLVLSLAYGMVALIGYSVSFDKTTFRLLRGESNLFYTLAKWENNKLHVELPENIDKQSPTMTLIYDENGQLLWAQRDVPWLMKMIQPDWLKSNGFHEIEADVNDTSLLLSGDHSIQQQLQEVREDDDDAEMTHSVAVNVYPATSRMPKLTIVVVDTIPVELKSSYMVWSWFIYVLSANLLLVIPLLWVAAWWSLRPIEALAKEVRELEEHNRELLNPATTRELTSLVRNLNRLLKSERERYDKYRTTLTDLTHSLKTPLXXLQXXLRSLRSEKMSVSDAEPVMLEQISRISQQIGYYLHRASMRGGTLLSRELHPVAPLLDNLTSALNKVYQRKGVNISLDISPEISFVGEQNDFVEVMGNVLDNACKYCLEFVEISARQTDEHLYIVVEDDGPGIPLSKREVIFDRGQRVDTLRPGQGVGLAVAREITEQYEGKIVAGESMLGGARMEVIFGRQHSAPKDE

Variants of: B1
Experiment: enrichment ratio after two sorts for PhoP signalling (ratio (wild type AVST 3.29)); higher = more functional
Settings: with PhoP (E. coli)

Variant | enrichment ratio
DHYR | ≤ 0.25
LWYS | ≤ 0.25
LWFP | ≤ 0.25
HRKC | ≤ 0.25
ELMG | ≤ 0.25
INTA | ≤ 0.25
VKLS | ≤ 0.25
PVAR | ≤ 0.25
IHKQ | ≤ 0.25
PKPT | ≤ 0.25
RKPT | ≤ 0.25
QYTG | ≤ 0.25
MTAT | 3.47
MIYM | 4.83
DGQY | ≤ 0.25
VCEV | ≤ 0.25
VHMI | ≤ 0.25
WPMW | ≤ 0.25
SLHT | ≤ 0.25
ITDK | ≤ 0.25
ILFI | ≤ 0.25
KEYS | ≤ 0.25
EPMR | ≤ 0.25
GEVW | ≤ 0.25

Variant | enrichment ratio
YNAM | ≤ 0.25
YWFW | ≤ 0.25
RQVK | ≤ 0.25
EFLG | ≤ 0.25
ACGP | 0.562
DRCE | ≤ 0.25
CIFT | ≤ 0.25
PNLC | 1.41
SCKP | ≤ 0.25
MKWP | ≤ 0.25
TANE | 18.3
QRYL | ≤ 0.25
IEWW | ≤ 0.25
VPHD | ≤ 0.25
YGSE | ≤ 0.25
FMFP | ≤ 0.25
PYRR | ≤ 0.25
YCMT | 0.253
QDYK | ≤ 0.25
NQEV | ≤ 0.25
KLNN | ≤ 0.25
FDTI | ≤ 0.25
DNNI | ≤ 0.25
SSAN | 12.6

Variant | enrichment ratio
LHDI | ≤ 0.25
GRTN | ≤ 0.25
KMIH | ≤ 0.25
WRFC | ≤ 0.25
YKMH | ≤ 0.25
HQQL | ≤ 0.25
WKGM | ≤ 0.25
LARV | ≤ 0.25
PVEV | ≤ 0.25
LAPV | ≤ 0.25
LGYR | ≤ 0.25
LKES | ≤ 0.25
HWRP | ≤ 0.25
LVTT | ≤ 0.25
RNLT | ≤ 0.25
HWPS | ≤ 0.25
TRSD | ≤ 0.25
MCAC | 6.31
TEPL | ≤ 0.25
RDVS | ≤ 0.25
GCAR | ≤ 0.25
FDRM | ≤ 0.25
WDTL | ≤ 0.25
RDNH | ≤ 0.25

Variant | enrichment ratio
SDGS | ≤ 0.25
RITY | ≤ 0.25
NQNY | ≤ 0.25
MPAY | ≤ 0.25
NMVS | ≤ 0.25
LRLI | ≤ 0.25
WYHR | ≤ 0.25
YQCA | ≤ 0.25
TQKL | ≤ 0.25
QIHV | ≤ 0.25
QQDI | 4.8
IRPH | ≤ 0.25
LGGK | ≤ 0.25
YWNL | ≤ 0.25
YEMI | 6.9
GFSD | ≤ 0.25
SCST | 10.5
HTNL | ≤ 0.25
EVES | ≤ 0.25
NDGE | ≤ 0.25
WKNT | ≤ 0.25
HLLY | ≤ 0.25
PIGW | ≤ 0.25
HGLY | 3.92

Variant | enrichment ratio
YWQQ | ≤ 0.25
GCVI | ≤ 0.25
TDLF | 0.961
WASQ | ≤ 0.25
AQLQ | 5.87
EITF | ≤ 0.25
AEAR | ≤ 0.25
GCVT | ≤ 0.25
RSCR | ≤ 0.25
LYAT | 0.257
IICQ | ≤ 0.25
EKAH | ≤ 0.25
GQLM | 5.26
QGSE | 7.43
FEHH | ≤ 0.25
RQQY | ≤ 0.25
TQSY | 12.3
NYPQ | ≤ 0.25
DKSV | ≤ 0.25
IGAN | ≤ 0.25
NSIC | ≤ 0.25
QTTS | ≤ 0.25
HAGL | ≤ 0.25
LDVT | ≤ 0.25

Variant | enrichment ratio
QLQP | ≤ 0.25
FMPF | ≤ 0.25
HQDV | ≤ 0.25
SCII | 5.01
SFLV | 1.19
KYCL | ≤ 0.25
FIYC | ≤ 0.25
VKPC | ≤ 0.25
EFDS | ≤ 0.25
DSYY | ≤ 0.25
EHRF | ≤ 0.25
NTPI | ≤ 0.25
ICDR | ≤ 0.25
VPVH | ≤ 0.25
ASVW | ≤ 0.25
LLQE | ≤ 0.25
VFGV | ≤ 0.25
MIIS | 1.61
YTQK | ≤ 0.25
VASH | ≤ 0.25
FYTF | ≤ 0.25
ERHA | ≤ 0.25
WIWA | ≤ 0.25
QHRV | ≤ 0.25

Variant | enrichment ratio
HIMG | ≤ 0.25
VVWL | ≤ 0.25
REIA | ≤ 0.25
VGTY | ≤ 0.25
ASFH | ≤ 0.25
MKWG | ≤ 0.25
TIGN | 3.22
RCRN | ≤ 0.25
VLWY | ≤ 0.25
GPTA | ≤ 0.25
DAMS | ≤ 0.25
KGYW | ≤ 0.25
MKLG | ≤ 0.25
IDKR | ≤ 0.25
MFMT | ≤ 0.25
GSQQ | ≤ 0.25
ICFM | ≤ 0.25
NPRS | ≤ 0.25
PAQP | ≤ 0.25
NMLN | ≤ 0.25
IVQH | ≤ 0.25
WGPA | ≤ 0.25
FASV | ≤ 0.25
YGAR | ≤ 0.25

Variant | enrichment ratio
PKTC | ≤ 0.25
PDPV | ≤ 0.25
RPQE | ≤ 0.25
QHDM | 19.5
TYGH | ≤ 0.25
WFGR | ≤ 0.25
EAHG | ≤ 0.25
YWLP | ≤ 0.25
WLYY | ≤ 0.25
ITQW | ≤ 0.25
GHEL | ≤ 0.25
YFCW | ≤ 0.25
FKWC | ≤ 0.25
RWPA | ≤ 0.25
ICVI | ≤ 0.25
QIII | ≤ 0.25
GKRN | ≤ 0.25
KNVN | ≤ 0.25
EEPC | ≤ 0.25
VKMG | ≤ 0.25
SYRE | ≤ 0.25
VTFP | ≤ 0.25
HAFR | ≤ 0.25
GSGY | ≤ 0.25

Variant | enrichment ratio
MHSL | 0.261
QGPA | ≤ 0.25
QEAT | 3.8
EQGF | ≤ 0.25
FNSP | ≤ 0.25
QRWN | ≤ 0.25
FAAL | ≤ 0.25
DWNT | ≤ 0.25
WGFY | ≤ 0.25
RVMT | ≤ 0.25
FWDF | ≤ 0.25
QYWD | ≤ 0.25
NQKV | ≤ 0.25
DHNS | ≤ 0.25
TFDE | ≤ 0.25
EGQG | ≤ 0.25
INWD | ≤ 0.25
STFF | ≤ 0.25
NKFL | ≤ 0.25
HNSQ | ≤ 0.25
YHGE | ≤ 0.25
NKML | ≤ 0.25
SKGG | ≤ 0.25
QRPN | ≤ 0.25

Variant | enrichment ratio
WKNM | ≤ 0.25
LGIR | ≤ 0.25
LHIC | ≤ 0.25
NKDN | ≤ 0.25
IDMM | ≤ 0.25
PLVG | ≤ 0.25
MRWD | ≤ 0.25
PNWY | ≤ 0.25
MECK | 27.3
AKHS | ≤ 0.25
AMTD | ≤ 0.25
TSNK | ≤ 0.25
YTSC | ≤ 0.25
SWHV | ≤ 0.25
DKFY | ≤ 0.25
LPKR | ≤ 0.25
DKYY | ≤ 0.25
MLLM | 7.62
PEDR | ≤ 0.25
TNKN | ≤ 0.25
PDGH | ≤ 0.25
DCIL | ≤ 0.25
AYVE | ≤ 0.25
HKMT | ≤ 0.25

Variant | enrichment ratio
IQGT | ≤ 0.25
PPDI | ≤ 0.25
PPCG | ≤ 0.25
QELN | ≤ 0.25
ENFM | ≤ 0.25
RWRA | ≤ 0.25
NTTH | ≤ 0.25
NSSD | ≤ 0.25
YGGQ | ≤ 0.25
DMHM | ≤ 0.25
AYCD | ≤ 0.25
KHYN | ≤ 0.25
ACRY | ≤ 0.25
FREA | ≤ 0.25
YVTN | ≤ 0.25
SPER | ≤ 0.25
ASSL | 11.7
AWKC | ≤ 0.25
WRWK | ≤ 0.25
QNPS | ≤ 0.25
PHCP | ≤ 0.25
RMLA | ≤ 0.25
IYYV | ≤ 0.25
WTTP | ≤ 0.25

Variant | enrichment ratio
AHFC | ≤ 0.25
QQQP | ≤ 0.25
PHEG | ≤ 0.25
NMCD | ≤ 0.25
RHCI | ≤ 0.25
KCCR | ≤ 0.25
YMMV | 0.316
WPKG | ≤ 0.25
PRWC | ≤ 0.25
KTMQ | ≤ 0.25
AMMF | 10
VKLL | 0.684
HRSH | ≤ 0.25
GNHG | ≤ 0.25
LKKV | ≤ 0.25
ICFV | ≤ 0.25
RYLH | ≤ 0.25
TDME | 11.5
KRGH | ≤ 0.25
EMLE | ≤ 0.25
RSCM | ≤ 0.25
PKVM | ≤ 0.25
DAEP | ≤ 0.25
PHIY | ≤ 0.25

Variant | enrichment ratio
HGRD | ≤ 0.25
SPQH | ≤ 0.25
WQTL | ≤ 0.25
RLMI | ≤ 0.25
TVQN | 12.1
YPIE | ≤ 0.25
PNWH | ≤ 0.25
FKAS | ≤ 0.25
TPNK | ≤ 0.25
HQRF | ≤ 0.25
YTWA | ≤ 0.25
MNQT | ≤ 0.25
KKIT | ≤ 0.25
GGYH | ≤ 0.25
TVRW | ≤ 0.25
DTVC | ≤ 0.25
DLHM | ≤ 0.25
IVGW | ≤ 0.25
